Reference: the supplement of paper PMC11417369
± gives the standard deviation of the averaged measurements. This is one part of the list.

The sequences below were run on PfAP2-G AP2 domain (GST-tagged) (assay: gcPBM binding intensity (ln(normalized median fluorescence intensity)); higher = stronger DNA binding).
Procedure, shortened: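 GST-tagged P. falciparum DNA-binding domains, expressed in E. coli (about 25 μg on average), were applied for 1 h to an Agilent 4 × 180k array of primer-extended double-stranded 36-bp intergenic genomic probes plus negative controls. The binding buffer was 1× PBS with 1% milk, 0.2 mg/ml BSA, 0.5% salmon testes DNA and 0.03% Triton X-100. Bound protein was detected with Alexa488 anti-GST antibody and scanned at 488 nm. Binding intensity is the highest Masliner-normalised natural-log median intensity across replicate spots of either probe orientation.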

Point of comparison: “ATATTTATAATTTTTTGTACACATTTTTTAAAGATA [XGTACX_site1784]”, “gcPBM binding intensity (ln)” value 11.4 ± 0.9. Against it:
- AGTAGTCTGGAGAAGAGTACATAGTATCTGGTAGCT [XGTACX_site2017] — within error, 11.3 ± 0.81
- CTACACACTTATAAATGTACAGGATTTAAGTATATG [XGTACX_site8245] — within error, 10.9 ± 0.49
- TGTAATAATCTTCATTTCTTTTTTTTTTTTTTTTGT [CACACA_negctrl_site1388] — lower, 9.53 ± 0.15
- AAATATAATAATACATTGCACATATATTATATATAT [TGCATGCA_negctrl_site611] — lower, 9.9 ± 0.15
- TAACTTAATAAAAAAAGTACATATATTTTTAATAAA [XGTACX_site2707] — the same, 11.4 ± 1
- AGTGAATATTACGAAACACACAAAAAAATACATTTC [CACACA_site511] — lower, 10.03 ± 0.014
- ATATAAGTTTTTTCTCAAAAAGTATAACGAGCATGA [CACACA_negctrl_site1375] — lower, 10.12 ± 0.049
- TCTATTATCCTTTGCACACAAAATAAATGAAAAAAT [CACACA_site3029] — within error, 10.2 ± 0.37
- ACATTATATAAATATATACATATATATATATATAAA [GTGCAC_negctrl_site115] — lower, 9.63 ± 0.057
- TTTGATAAATGATACACACACAATATTTATAAAATA [CACACA_site7040] — lower, 10.2 ± 0.099
- CCCACGTATATTTTGTGTACATAAATAAATAAATAA [XGTACX_site4046] — within error, 11.6 ± 0.86
- TGTCATGATACATACACACACATACACATACACATA [CACACA_site2135] — within error, 10.3 ± 0.25
- ATGCATAAAAGAAATACACACATAAATATATAAATA [CACACA_site2163] — lower, 9.85 ± 0.028
- TATGGATTACACAATTGTACAAGAAAAATGTAAATA [XGTACX_site4040] — within error, 10.9 ± 0.41
- TATTTAATTATATAAAATTAAATTTTTAATTCTTCC [CACACA_negctrl_site473] — lower, 9.38 ± 0.21
- ACATCTATGTATAATACACACACTAATATATAATTG [CACACA_site5134] — lower, 10.2 ± 0.16
- ACATATTATTCTTCTTGTACACATAAATTTTATAAA [XGTACX_site299] — the same, 11.4 ± 0.88
- ATACGAAAATATTTTGCACACTATAATTATTCATAT [CACACA_site1765] — lower, 10.06 ± 0.092
- TTTCCCTACCAAAAGTGTACTTATACATATTTTTAT [XGTACX_site5495] — within error, 11.5 ± 0.89
- AAAAAAAAAAAAAAAGTGCATTAATAAATTTTAATA — within error, 10.4 ± 0.33
- TATACTCATATATAAACACACAAAAAAAAAAAAAAA [CACACA_site5165] — lower, 9.71 ± 0.47
- ATATATATATATATGTGTACATATATATATCATATG [XGTACX_site3126] — the same, 11.4 ± 0.88
- TTTTTTTCATAATATACACACAAAAAAAAAAAAAAA [CACACA_site3224] — within error, 9.97 ± 0.57
- TGATATTTAAATTTTGCACACGCATATGAAATTAGG [CACACA_site1034] — lower, 10.2 ± 0.16
- TCTTATAATTTACCTACACACAGGAAATATATAAAT [CACACA_site294] — lower, 10.07 ± 0.085
- TCAGAAATATTACAAAGTACATGCAACGAAAATTTC [XGTACX_site5061] — within error, 10.9 ± 0.54
- ACACAATGTAGTGTATAAATACAATAAAAGGTTGTA [TGCATGCA_negctrl_site251] — lower, 10.02 ± 0.078
- AAAAAAATATTCAAAGCATGCCTATTTACACATATT [TGCATGCA_site806] — lower, 9.815 ± 0.078
- ATGACGTAGTGGTGTACACACATGGTACCTTTATTC [CACACA_site1547] — within error, 11.6 ± 0.84
- CATATAGTAATATATACACACACTTGTCTTGTAAAA [CACACA_site8238] — lower, 10.01 ± 0.042
- AAGAAGCATAAATGTACACACATATTTATATATTAA [CACACA_site1332] — within error, 11.2 ± 0.77
- CTTTATATATAGTGTACACATTAAACAAATCTCAAT [CACACA_site5845] — within error, 11.6 ± 1
- TTACCAAAAACCTCAAGTACAAAAAATCCCTAATAT [XGTACX_site2313] — within error, 11 ± 0.62
- TTTTTTTTTTTTTTTGCACACACATTGAATTATTAT [CACACA_site198] — within error, 9.97 ± 0.57
- AAATGGAAAAGGTGTACACAAAAAAAAGGGAAAAGC [CACACA_site5331] — within error, 11.7 ± 1.2
- ATATATATATATATATGTACTAAATATTCATCCTTA [XGTACX_site6039] — within error, 11 ± 0.65
- AAGTTTAAGAAATAATTCATATTTACTTCCATCCTC [GTGCAC_negctrl_site494] — lower, 9.62 ± 0.34
- ATAGTATACAGACACACACACACACGGATATAAATA [CACACA_site6914] — within error, 10.3 ± 0.31
- AATGGGTTAGCACATACACACCAATATATTATATAT [CACACA_site9011] — lower, 10.04 ± 0.071
- ATTTATGATATGTAAACATGCATAAAAATTTCAAAA [TGCATGCA_site858] — lower, 9.685 ± 0.007
- TATAAACTTAATTTGAGTACTTAATAATAATTTTGT [XGTACX_site3730] — the same, 11.4 ± 0.67
- TACCACATCGGTAAATGTACTTATAAAAAAAAAAAA [XGTACX_site3364] — within error, 11.2 ± 1.1
- CATCCACATATATGTACACACATATATATATATATA [CACACA_site2964] — the same, 11.4 ± 0.81
- CAATCATTTTATTGTTGTACAGTAATTATGAATTCA [XGTACX_site7508] — the same, 11.4 ± 0.85
- TATATATGTATATATGGTACAGAATATTCTACATTA [XGTACX_site5077] — within error, 10.7 ± 0.49
- TAAGAGTAGTTATATACACACATGTATATTATAGTT [CACACA_site6815] — lower, 9.81 ± 0.071
- TTGGTACCTATAGATACACACATATATACATATATA [CACACA_site3402] — within error, 10.8 ± 0.61
- TTATAAATTAGAGGTACACACAAAAAAAAAAAGAAA [CACACA_site6740] — the same, 11.4 ± 0.86
- CACGACATTAACAATACATGCAGAAAAACAAAAAAT [TGCATGCA_site689] — lower, 10.085 ± 0.007
- ATTTTTAATATTATTACACACACTAAAAAAAAAAAA [CACACA_site1067] — lower, 10.1 ± 0.4
- TATATATATATATTATGTACGTATCAGTTTGTATGT [XGTACX_site695] — the same, 11.4 ± 0.87
- TTTTTTTCTTTTTCAAAAAAAAAAAAAAAAAAAATA [GTGCAC_negctrl_site329] — lower, 9.73 ± 0.47
- GCTAGTTTTTTTTGGCGTACAGTACCGGTTTACTTT [XGTACX_site2606] — within error, 11.6 ± 1
- ACCCATTTTAATTTAGTGCACATTTTACCTTTATAC — within error, 10.5 ± 0.26
- TTCTGCAGCAATGTTTTTTTTAAATATTTATATGGT [CACACA_negctrl_site1815] — lower, 9.875 ± 0.021
- AAAAAAATAACAAAGTGTACTTTTATATTTTACATA [XGTACX_site8954] — within error, 11.3 ± 0.93
- TTCCTCTTAATATGTGCACACTAAATTATAACATAA [CACACA_site3260] — within error, 10.6 ± 0.34
- CATACCATACATAAAACACACAAAATTTACATAATA [CACACA_site3100] — lower, 9.99 ± 0.12
- TATAGTTTTATTATTTATGTGTTAAAATTATACAAG [TGCATGCA_negctrl_site246] — lower, 9.79 ± 0.15
- TTAGCTCAATTTTTGGGTACACACAAATGTATAATA [XGTACX_site5003] — the same, 11.4 ± 0.93
- GAAAAATGTAAATACATATATGTACACAAATATATA [GTGCAC_negctrl_site557] — within error, 11.6 ± 0.96
- CAATTTGGTGTACAGGTGCACATGCCTCACGATAAA [GTGCAC_site9650] — within error, 11.6 ± 0.92
- AAAAAAAAAAAAAAATGTACATATTAAGTATAATTA [XGTACX_site4616] — within error, 11 ± 0.65
- ATTCTAAATTAAAATACACACATATATACATAATAT [CACACA_site2792] — lower, 9.985 ± 0.021
- AATATTTATAAATTTACACACACACGGGTGAACATA [CACACA_site6979] — lower, 10.3 ± 0.13
- TTTAATTCCATAAGTAAACACACAAATGCCAAAATT [CACACA_site9049] — lower, 10.25 ± 0.071
- TATGTAAAAACAGGCACACATATATCATATATATAT [CACACA_site619] — lower, 10.1 ± 0.32
- AAAAAAAAAAAAAAAAGTACATAATATAAAATCTAA [XGTACX_site6019] — within error, 11.6 ± 0.95
- TATGTATGCCTGTTTTGTACTTAAGAAAATGTTGCT [XGTACX_site8443] — within error, 11 ± 0.57
- TATAAACATAAATATACACACAAACATCTATGTATT [CACACA_site4804] — lower, 9.79 ± 0.042
- TATAAATATATATGTACACACATATACATGTTGAAT [CACACA_site3118] — within error, 11.3 ± 0.79
- TAAAACATCAAGGGGTGTACAAAAAAGATGAACAGG [XGTACX_site6929] — within error, 11.2 ± 0.64
- AAAAAAAAAAAAACTACACACATAAAATATATTGTG [CACACA_site805] — lower, 10.07 ± 0.071
- ATTGGGTTCATCAGCACACACAACATCATGTAATAA [CACACA_site5093] — within error, 10.3 ± 0.4
- AGAGCATAATAAAACACACACATACATACATATATA [CACACA_site935] — lower, 9.94 ± 0.028
- AGGCACTTATAATAATGTACATAAATAAAAAGAAAA [XGTACX_site6037] — within error, 11.1 ± 0.54
- AAAAAAAAATATCACACACACATAAATATAAACCAA [CACACA_site2279] — lower, 10.1 ± 0.11
- TTTTCAATATATATTTGTACTTTATTTTATGATATT [GTGCAC_negctrl_site732] — within error, 11.2 ± 0.75
- GCATTCATTTTTAATACACACAAAAAAAAAATAAAA [CACACA_site2408] — within error, 10.2 ± 0.42
- ACTATTAACAGTGTAGTGCAAAAAGGTTAATTATTA — lower, 10.2 ± 0.15
- TAAATGTCCTTATTTGCACACACACCGATAAGAAAT [CACACA_site5723] — within error, 11 ± 0.78
- TCTATGTAGTTTTTATGTACTAAATAAATAAATAAA [XGTACX_site2599] — within error, 11 ± 0.8
- TAGAAGCAGAAACACACACACATACATACACATACA [CACACA_site1467] — lower, 10.1 ± 0.13
- TACATATATATTTGTTCACACACACCCAAAAAAAAA [CACACA_site8788] — within error, 10.4 ± 0.31
- TATTTTACACATTTACGTACATAAATATATATATAT [XGTACX_site8788] — within error, 11.6 ± 0.95
- TACGCACAAAAATATACACACACACCGATATATTTA [CACACA_site9213] — lower, 10.1 ± 0.23
- AGACATTTTTAAGCAAAACATTCATCATCTTATAAT [CACACA_negctrl_site1539] — lower, 9.7 ± 0.19
- ATATTGAATTCCAACACATGCAAAACTTTCGGTTTT [TGCATGCA_site485] — lower, 9.84 ± 0.12
